{"source": "the supplement of paper PMC4604168 (melanoma cell lines)", "assay_in_all_cases": "cell count relative to DMSO control; melanoma cells; higher = more viable cells", "settings_in_all_cases": "library dose: standard library concentration; 72 h", "key": {"A101D": {"system": "A101D"}, "A2058": {"system": "A2058"}, "A375": {"system": "A375"}, "501Mel": {"system": "501Mel"}}, "note": "The list shows a part of the results. Many values rest on one well or one pass, so single values are uncertain.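 Further: cells treated in 1,536-well plates, then fixed and DAPI-stained, with nuclei counted from automated high-throughput microscope images.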"}
{"smiles": "COc1ccc(COc2ccc(Cc3cnc(N)nc3N)cc2OC)cc1", "note": "+ O=C(Oc1ccc([N+](=O)[O-])cc1)N1CCC(C(O)(c2ccc3c(c2)OCO3)c2ccc3c(c2)OCO3)CC1 [JZL184] (first compound 5 µM, partner dose 5 µM)", "values": [{"measurement": "cell count", "setting": "A101D", "value": 91, "unit": "%"}, {"measurement": "cell count", "setting": "A2058", "value": 107, "unit": "%"}, {"measurement": "cell count", "setting": "A375", "value": 83.5, "unit": "%"}]}
{"smiles": "CO[C@H]1C[C@@H]2CC[C@@H](C)[C@@](O)(O2)C(=O)C(=O)N2CCCC[C@H]2C(=O)O[C@H]([C@H](C)C[C@@H]2CC[C@@H](OCCO)[C@H](OC)C2)CC(=O)[C@H](C)/C=C(\\C)[C@@H](O)[C@@H](OC)C(=O)[C@H](C)C[C@H](C)/C=C/C=C/C=C/1C", "note": "[everolimus] + O=C(Oc1ccc([N+](=O)[O-])cc1)N1CCC(C(O)(c2ccc3c(c2)OCO3)c2ccc3c(c2)OCO3)CC1 [JZL184] (first compound 0.1 µM, partner dose 5 µM)", "values": [{"measurement": "cell count", "setting": "A101D", "value": 79.5, "unit": "%"}, {"measurement": "cell count", "setting": "A2058", "value": 67.1, "unit": "%"}, {"measurement": "cell count", "setting": "A375", "value": 91, "unit": "%"}]}
{"smiles": "CC(C)C[C@H](NC(=O)[C@H](Cc1ccccc1)NC(=O)c1cnccn1)B(O)O", "note": "[Bortezomib] + C[As](C)SC[C@H](NC(=O)CC[C@H](N)C(=O)O)C(=O)NCC(=O)O [Darinaparsin] (first compound 0.005 µM, partner dose 2 µM)", "values": [{"measurement": "cell count", "setting": "A101D", "value": 12, "unit": "%"}, {"measurement": "cell count", "setting": "A2058", "value": 10.7, "unit": "%"}, {"measurement": "cell count", "setting": "A375", "value": 64.6, "unit": "%"}]}
{"smiles": "COCC[n+]1c2c(n(Cc3cnccn3)c1C)C(=O)c1ccccc1C2=O", "note": "+ Cc1cc(SCc2sc(-c3ccc(C(F)(F)F)c(F)c3)nc2C)ccc1OCC(=O)O [GW0742] (first compound 0.002 µM, partner dose 10 µM)", "values": [{"measurement": "cell count", "setting": "501Mel", "value": 77.5, "unit": "%"}, {"measurement": "cell count", "setting": "A101D", "value": 75.5, "unit": "%"}, {"measurement": "cell count", "setting": "A2058", "value": 28.9, "unit": "%"}, {"measurement": "cell count", "setting": "A375", "value": 99.7, "unit": "%"}]}
{"smiles": "CC(C)C[C@H](NC(=O)[C@H](Cc1ccccc1)NC(=O)c1cnccn1)B(O)O", "note": "[Bortezomib] + Cc1cc(SCc2sc(-c3ccc(C(F)(F)F)c(F)c3)nc2C)ccc1OCC(=O)O [GW0742] (first compound 0.005 µM, partner dose 10 µM)", "values": [{"measurement": "cell count", "setting": "A101D", "value": 18.2, "unit": "%"}, {"measurement": "cell count", "setting": "A2058", "value": 12.1, "unit": "%"}, {"measurement": "cell count", "setting": "A375", "value": 90, "unit": "%"}]}
{"smiles": "O=C(O)c1ccc2c(c1)nc(Nc1cccc(Cl)c1)c1ccncc12", "note": "+ C[As](C)SC[C@H](NC(=O)CC[C@H](N)C(=O)O)C(=O)NCC(=O)O [Darinaparsin] (first compound 2 µM, partner dose 2 µM)", "values": [{"measurement": "cell count", "setting": "A101D", "value": 63.5, "unit": "%"}, {"measurement": "cell count", "setting": "A2058", "value": 80.4, "unit": "%"}, {"measurement": "cell count", "setting": "A375", "value": 52.2, "unit": "%"}]}
{"smiles": "Nc1ccn([C@@H]2O[C@H](CO)[C@@H](O)C2(F)F)c(=O)n1", "note": "[gemcitabine] + Cc1cc(SCc2sc(-c3ccc(C(F)(F)F)c(F)c3)nc2C)ccc1OCC(=O)O [GW0742] (first compound 0.002 µM, partner dose 10 µM)", "values": [{"measurement": "cell count", "setting": "A101D", "value": 93.7, "unit": "%"}, {"measurement": "cell count", "setting": "A2058", "value": 58.2, "unit": "%"}, {"measurement": "cell count", "setting": "A375", "value": 114, "unit": "%"}]}
{"smiles": "C#Cc1cccc(Nc2ncnc3cc(OCCOC)c(OCCOC)cc23)c1", "note": "[erlotinib] + Cc1cc(SCc2sc(-c3ccc(C(F)(F)F)c(F)c3)nc2C)ccc1OCC(=O)O [GW0742] (first compound 4 µM, partner dose 10 µM)", "values": [{"measurement": "cell count", "setting": "A101D", "value": 72.5, "unit": "%"}, {"measurement": "cell count", "setting": "A2058", "value": 90, "unit": "%"}, {"measurement": "cell count", "setting": "A375", "value": 118, "unit": "%"}]}
{"smiles": "CC(C)C[C@H](NC(=O)[C@H](Cc1ccccc1)NC(=O)c1cnccn1)B(O)O", "note": "[Bortezomib] + N.N.[Cl][Pt][Cl] [cisplatin] (first compound 0.005 µM, partner dose 8 µM)", "values": [{"measurement": "cell count", "setting": "A101D", "value": 8.53, "unit": "%"}, {"measurement": "cell count", "setting": "A2058", "value": 12.7, "unit": "%"}, {"measurement": "cell count", "setting": "A375", "value": 78, "unit": "%"}]}
{"smiles": "C=CCn1c(=O)c2cnc(Nc3ccc(N4CCN(C)CC4)cc3)nc2n1-c1cccc(C(C)(C)O)n1", "note": "+ C/C(O)=C(\\C#N)C(=O)Nc1cc(Br)ccc1Br [LFM-A13] (first compound 0.1 µM, partner dose 10 µM)", "values": [{"measurement": "cell count", "setting": "A101D", "value": 58.4, "unit": "%"}, {"measurement": "cell count", "setting": "A2058", "value": 85, "unit": "%"}, {"measurement": "cell count", "setting": "A375", "value": 51.5, "unit": "%"}]}
{"smiles": "Cc1cc(Nc2cc(N3CCN(C)CC3)nc(Sc3ccc(NC(=O)C4CC4)cc3)n2)n[nH]1", "note": "[Tozasertib] + N.N.[Cl][Pt][Cl] [cisplatin] (first compound 0.03 µM, partner dose 8 µM)", "values": [{"measurement": "cell count", "setting": "A101D", "value": 86, "unit": "%"}, {"measurement": "cell count", "setting": "A2058", "value": 101, "unit": "%"}, {"measurement": "cell count", "setting": "A375", "value": 90.6, "unit": "%"}]}
{"smiles": "C[C@@H]1CCN(C(=O)CC#N)C[C@@H]1N(C)c1ncnc2[nH]ccc12", "note": "+ O=C(Oc1ccc([N+](=O)[O-])cc1)N1CCC(C(O)(c2ccc3c(c2)OCO3)c2ccc3c(c2)OCO3)CC1 [JZL184] (first compound 5 µM, partner dose 5 µM)", "values": [{"measurement": "cell count", "setting": "A101D", "value": 89.8, "unit": "%"}, {"measurement": "cell count", "setting": "A2058", "value": 86.7, "unit": "%"}, {"measurement": "cell count", "setting": "A375", "value": 103, "unit": "%"}]}
{"smiles": "O=C(CCCCCCC(=O)Nc1ccccc1)NO", "note": "[vorinostat] + O=C(Oc1ccc([N+](=O)[O-])cc1)N1CCC(C(O)(c2ccc3c(c2)OCO3)c2ccc3c(c2)OCO3)CC1 [JZL184] (first compound 0.4 µM, partner dose 5 µM)", "values": [{"measurement": "cell count", "setting": "A101D", "value": 85.3, "unit": "%"}, {"measurement": "cell count", "setting": "A2058", "value": 92.2, "unit": "%"}, {"measurement": "cell count", "setting": "A375", "value": 119, "unit": "%"}]}
